SMILES strings stand for the structures. Over roughly 110,000 compounds, “z-score” has its median near -0.1; the highest 2% begin near 2. The list shows a part of the results. The source made the active and inactive calls.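 Rule for the calls: active = z-score in the third read window above 3 or below -3; inactive = the rest.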

This assay has as its target Metabotropic glutamate receptor 8 (Rattus norvegicus) (UniProt P70579). As to the kind of experiment: rat mGluR8 modulators via GIRK flux, primary screen, cell-based, thallium flux, HTS (AID 488969). As to conditions: HEK293 rat mGluR8, GIRK (G protein-gated inwardly rectifying potassium channel) thallium flux, FluoZin2; at 10 µM; stronger effect = higher value; submaximal glutamate (EC20) added with thallium.
Chain of UniProt P70579 (P70579 whole entry, looked up): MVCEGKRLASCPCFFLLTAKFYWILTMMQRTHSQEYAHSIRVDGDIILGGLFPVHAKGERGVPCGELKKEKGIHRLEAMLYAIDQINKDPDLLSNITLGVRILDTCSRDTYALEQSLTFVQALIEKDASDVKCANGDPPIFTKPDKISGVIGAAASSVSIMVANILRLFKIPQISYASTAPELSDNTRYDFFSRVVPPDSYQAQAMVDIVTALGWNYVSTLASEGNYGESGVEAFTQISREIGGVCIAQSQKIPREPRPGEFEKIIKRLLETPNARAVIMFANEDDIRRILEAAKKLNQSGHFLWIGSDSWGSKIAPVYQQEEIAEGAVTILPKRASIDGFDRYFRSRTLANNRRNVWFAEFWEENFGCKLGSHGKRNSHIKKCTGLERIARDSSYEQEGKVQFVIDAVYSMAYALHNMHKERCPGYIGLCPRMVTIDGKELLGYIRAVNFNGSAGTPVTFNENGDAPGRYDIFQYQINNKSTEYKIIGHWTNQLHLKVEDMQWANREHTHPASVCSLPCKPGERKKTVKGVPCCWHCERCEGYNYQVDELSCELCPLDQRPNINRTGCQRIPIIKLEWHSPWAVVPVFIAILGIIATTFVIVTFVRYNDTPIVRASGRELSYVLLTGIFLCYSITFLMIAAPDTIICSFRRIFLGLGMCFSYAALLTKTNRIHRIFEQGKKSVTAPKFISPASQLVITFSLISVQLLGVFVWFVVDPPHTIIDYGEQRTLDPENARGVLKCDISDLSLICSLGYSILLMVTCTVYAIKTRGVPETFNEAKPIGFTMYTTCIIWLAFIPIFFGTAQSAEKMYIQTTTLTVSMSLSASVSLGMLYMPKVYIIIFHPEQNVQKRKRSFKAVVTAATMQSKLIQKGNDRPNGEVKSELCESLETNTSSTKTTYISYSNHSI
In turn, `CC(=O)c1c(COC(=O)c2ccncc2)nc2ccccc2[n+]1[O-]` showed a z-score of -0.077. Turning to `CCN(CC)CCNS(=O)(=O)c1ccc2[nH]cc(C(=O)O)c(=O)c2c1`, the z-score was -0.0272. With `CC(C)/C(=N\NC(=O)Nc1ccccc1)c1ccccc1`, the z-score is -0.107.

On to `COc1ccc(Nc2nc3ccccc3nc2-n2nc(C)cc2C)cc1`, for which the z-score is -0.0719. The result for `CCOC(=O)c1cc(CN2CCOCC2)oc1-c1ccccc1` reads -0.972; that for `CN(C)CCNC(=O)c1cc2c(s1)-c1ccccc1OC2`, active: 3.28. As for `O=C(Cc1ccccc1)NCC(=O)OCC(=O)c1cccc([N+](=O)[O-])c1`, the z-score is -0.184.

Turning to `O=C(Nc1ccc(O)c(-c2nc3ccccc3o2)c1)C1(c2ccc([N+](=O)[O-])cc2)CCCC1`, the z-score was -0.206.

The molecule `CCN(CC)c1ccc(C=Nc2cc(C)ccc2C)c(O)c1` displayed a z-score of -0.151. The result for `CCOC(=O)C1CCCN(S(=O)(=O)c2ccccc2)C1` (stereo not given) reads -0.0639; that for `CC(=O)NCCc1cc2ccc(C)cc2[nH]c1=O`, -0.381. The molecule `CCN(CC)c1ccc(C2C(C(=O)OC(C)C)C(=O)CC(C)(O)C2C(=O)OC(C)C)cc1` (stereo not given) had a z-score of -0.488. `Cc1ccnc2c(N3C(=O)C4C5C=CC(C5)C4C3=O)cccc12` (stereo not given) came in with a z-score of 0.571. With `Cc1ccc(S(=O)(=O)N2CCN(C(=O)CN3C(=O)NC4(CCOc5ccccc54)C3=O)CC2)cc1` (stereo not given), the z-score amounted to 0.106.

On to `CCOC(=O)c1cccc(P(C)(C)=O)c1`, for which the z-score was -0.00457. Take `O=C(Nc1cccnc1)c1ccc(S(=O)(=O)N2CCCCCC2)cc1`: the z-score stood at 0.612. To `CC(C)C(O)(C#CCN1CCCCC1)c1ccccc1` (stereo not given) belongs 1.95; to `COc1cccc(C(=O)Nc2ncc3c(n2)CC(C)(C)CC3=O)c1`, 0.57; to `Cc1c(C(=O)O)sc2ncnc(N3CCCCC3C)c12` (stereo not given), -0.514. Molecule `CCOC(=O)c1c(C)nc(-c2ccccc2)nc1NC(=O)C(C)C` showed a z-score of -0.21. The result for `CCN1CCN(CC(=O)N2c3ccccc3CC2C)CC1` (stereo not given) reads 0.0687; that for `S=C(NC1CCCCC1)N1CCN(c2ccccn2)CC1`, -0.808; that for `Cc1cc(C)cc(NC(=O)CN2C(=O)NC(C)(c3ccccc3)C2=O)c1` (stereo not given), -0.178. The result for `Cc1cc(C)cc(NC(=O)CN(Cc2ccccc2)S(C)(=O)=O)c1` reads -0.327. To `COC(=O)Cc1cc(OC)c(OC)cc1Cc1cc(OC)c(OC)cc1CC(=O)OC` belongs 0.0334; to `CCCCOC(=O)c1ccc(NC(=O)c2cc(Cl)ccc2OC)cc1`, -0.0115; to `O=C(NCc1ccco1)c1ccc(S(=O)(=O)N2CCOCC2)cc1`, 0.0332. As for `CCOC(=O)c1cn[nH]c1N`, the z-score is -0.543.

The molecule `O=C(c1ccccc1)N1CCN(CC2CC=CCC2)CC1` (stereo not given) had a z-score of -0.214. The result for `CCOC(=O)C/C(C)=N/NC(=O)C1CC1(c1ccccc1)c1ccccc1` (stereo not given) reads -1.09; that for `COc1ccccc1CN=C1NC(=O)C(CC(=O)Nc2ccc(OC)c(OC)c2)S1` (stereo not given), -0.818. The result for `O=C(NCCc1ccccc1)C1CCN(S(=O)(=O)c2cccc3nonc23)CC1` reads -0.491; that for `COc1ccnc(N2CCN(c3ccccc3)CC2)c1C#N`, 0.0026. `O=C(NC1CC1)c1scc2c1OCCO2` displayed a z-score of -0.134. Molecule `CCc1nnc(NC(=O)CN2C(=O)/C(=C/c3cc(OC)c(OC)c(OC)c3)SC2=S)s1` displayed a z-score of -0.315. The result for `COc1ccc(NC(=O)C2CCCN2C(=O)NCc2ccccc2)cc1OC` (stereo not given) reads 0.285; that for `CC(C)c1ccc(S(=O)(=O)c2cc3cc(Br)ccc3oc2=O)cc1`, -0.49; that for `COc1cc(NC(=O)C2=C(N3CCOCC3)/C(=C\c3ccc(Cl)cc3Cl)CC2)cc(OC)c1OC`, 0.0434. On to `COc1ccc(C(=O)Nc2cccc(C)c2)cc1S(=O)(=O)N1CCOCC1`, for which the z-score is 0.129. For the molecule `CCc1c(C)nc2ccc(Br)cc2c1Cl`, the z-score is -0.0836. The result for `CC(=O)C(C)Oc1ccc2c3c(c(=O)oc2c1C)CCCC3` (stereo not given) reads -1.13; that for `CCCCC(=O)Nc1nc(C)c(-c2csc(Nc3ccccc3OC)n2)s1`, -0.17; that for `COc1cc(NC(=O)CCNC(=O)Cn2cnc3ccccc3c2=O)cc(OC)c1OC`, 1.08. With `Cc1ccc(CSc2nc3c(c(=O)[nH]2)CCC3)cc1`, the z-score was -1.9.

`CCCOc1cc(C)c(S(=O)(=O)NC2CC(C)(C)NC(C)(C)C2)cc1C` had a z-score of 1.57. The result for `COc1cc2cc(CN(CCc3ccccc3C)C(=S)NCCCN(C)C)c(=O)[nH]c2cc1OC` reads 0.66.

Molecule `CC(NC(=O)c1cccs1)C(c1cccs1)N1CCN(c2ccccc2)CC1` (stereo not given) gave a z-score of -0.641. `Cc1ccccc1OC(=O)Cn1c(C(F)(F)F)nc2ccccc21` registered a z-score of -0.186. Take `Fc1ccc(N2CCN(c3ccc4c(C(F)(F)F)cc(C(F)(F)F)nc4n3)CC2)cc1`: the z-score was -0.261. With `C=C(C)C1CC=C(CN2CCC(C(=O)OCC)CC2)CC1` (stereo not given), the z-score came out at 0.503. `CCOC(=O)c1c(-c2cccs2)csc1NC(=O)CSc1ncn[nH]1` displayed a z-score of -0.402. Molecule `CCOC(=O)c1ccc(N=Cc2nc(-c3ccccc3)oc2OC(C)=O)cc1` had a z-score of -0.456. Consider `CCCc1nc(NCc2ccc3c(c2)OCO3)c2nnn(Cc3ccccc3Cl)c2n1`, for which the z-score is -0.0876.

For the molecule `Cc1cccc(NC(=O)NC(=S)NC(=O)c2ccccc2)c1`, the z-score was 2.86.

`NC(=O)C1(N2CCCCC2)CCN(C(=O)c2cccs2)CC1` displayed a z-score of -0.0357. To `O=C(CCn1c2c(c3ccccc31)CCCC2)NNC(=O)c1ccccc1Cl` belongs 0.468. As for `COc1ccccc1N(CC(=O)N1CCCCCC1)S(C)(=O)=O`, the z-score was found to be 0.103.

On to `COc1ccc(CNC(=O)C2CSC(c3ccc(OC)cc3)N2C(C)=O)cc1` (stereo not given), for which the z-score worked out at 0.415. The result for `CN(Cc1ccccc1)C(=O)c1cccc(N2C(=O)NC3CC2(C)Oc2ccccc23)c1` (stereo not given) reads -0.383; that for `Cc1ccc(-c2noc(COc3ccccc3C)n2)cc1`, 0.286; that for `Cc1cccc(C)c1NC(=O)C(c1ccccc1)N1CCC1=O` (stereo not given), -0.175. In turn, `N#Cc1cc2c(nc1SCC(=O)N1CCCCC1)CCCCC2` gave a z-score of -0.17. To `O=C(NCCN1CCOCC1)C1CCC(=O)N1Cc1ccccc1Cl` (stereo not given) belongs -0.22. To `COC(=O)C(C(=O)Nc1ccccc1C)C1CCCC1` (stereo not given) belongs -0.14; to `O=S(=O)(Nc1cccnc1)c1ccc(Cl)c(C(F)(F)F)c1`, 0.0113; to `O=C1[C@H]2[C@@H](C(=O)N1c1cccc3ccccc13)C1(C(=O)c3ccccc3C1=O)N1CCC[C@@H]21`, -0.278. The molecule `CCOC(=O)C1=C(C)Nc2nc3ccccc3n2C1c1ccncc1` (stereo not given) displayed a z-score of 0.18. `CCc1ccc(CCC(=O)Nc2ncc(Cc3ccccc3Cl)s2)o1` came in with a z-score of -0.492.

In turn, `COc1ccc(N(C(=O)COc2ccccc2)C2C=CS(=O)(=O)C2)c(OC)c1` (stereo not given) came in with a z-score of -0.438. The molecule `Cc1n[nH]c(C)c1N=Nc1cc(Cl)ccc1Cl` came in with a z-score of -0.193. In turn, `c1ccc(-n2nnnc2SCc2cccc(CSc3nnnn3-c3ccccc3)n2)cc1` gave a z-score of -0.941.

As for `COc1cccc(C2c3c(oc4ccc(F)cc4c3=O)C(=O)N2CCN2CCOCC2)c1OC` (stereo not given), the z-score was -0.574. To `COc1ccc(Cn2c(C)c(C)c(C#N)c2NC(=O)Nc2cccc(Cl)c2)cc1` belongs -0.0483; to `C/C(Cl)=C\Cn1c(Nc2ccc(C)cc2)nc2c1c(=O)n(C)c(=O)n2C`, -0.373; to `CN=c1scc(-c2cccs2)n1/N=C/c1ccc(O)c(O)c1O`, active: 3.01. With `CN(Cc1ccccc1)C(=O)CSc1nnc(-c2ccco2)n1-c1ccccc1`, the z-score is -0.258. `O=C(CNC(=O)C1CCCCC1)Nc1ccccc1Cl` returned a z-score of -0.138. For `Cc1ccccc1OCC(=O)NC(=S)Nc1ccc(Br)c(C)n1`, the z-score came to 0.414.

`O=S(=O)(Cc1ccccc1Cl)Nc1ccccn1` registered a z-score of 1.91. The result for `Cc1cc(OCC(=O)Nc2ccc3oc(-c4ccncc4)nc3c2)ccc1Cl` reads 0.0332; that for `CCCCOC(=O)c1ccc(NC(=O)c2ccccc2OC)cc1`, -0.0471. The molecule `O=C(NCc1ccco1)c1ccc2snnc2c1` gave a z-score of 0.448. Molecule `O=C(Nc1ccc2c(c1)OCCO2)C1c2ccccc2C(=O)N2CCc3ccccc3C12` (stereo not given) returned a z-score of -0.455. Molecule `O=c1nc(N(c2ccccc2)c2ccccc2)[nH]c(=O)[nH]1` showed a z-score of -0.611.

`CCOC(=O)c1c(NC(=O)CSc2nnc3c(n2)[nH]c2ccccc23)sc2c1CCN(C)C2` gave a z-score of -0.225. Regarding `O=C(NNC(=S)Nc1ccc(F)cc1)c1ccccc1OC(F)F`, the z-score was -0.00644. The result for `COc1cc(C(C)=O)ccc1COc1ccc(C(=O)OCC(N)=O)cc1OC` reads -0.313; that for `COc1cccc(C(=O)c2c[nH]c(C(=O)NCc3ccco3)c2)c1`, -0.00435; that for `COc1ccc(CNc2ccccc2)cc1Br`, -0.14. To `Cc1ccc(S(=O)(=O)NCC(=O)N(CC(=O)NCc2ccco2)Cc2cccs2)cc1` belongs -0.406; to `CC(=O)Nc1sc2c(c1C(N)=O)CCCC2`, 0.39; to `Cc1cccc2cc(CN(Cc3ccccc3)C(=O)c3cccc(F)c3)c(Cl)nc12`, -0.49. `O=C(Oc1ccc2c(c1)C(=O)c1ccccc1CO2)c1ccccc1`: the z-score is -0.673. For the molecule `CCOC(=O)Cc1cc(=O)n2[nH]c(C)cc2n1`, the z-score was -0.169.

In turn, `O=S1CCCSC1c1cccnc1` (stereo not given) gave a z-score of -0.0374. Regarding `COC(=O)c1c(N(S(C)(=O)=O)S(C)(=O)=O)sc2c1CCN(c1ncc(C(F)(F)F)cc1Cl)C2`, the z-score amounted to 0.174. The result for `C/C(=N\NC(=O)COc1ccc(C)cc1C(C)C)c1cc2ccccc2o1` reads -0.17; that for `O=C1c2ccc3c4c(ccc(c24)C(=O)N1Cc1cccnc1)C(=O)N(Cc1cccnc1)C3=O`, -0.223; that for `Cc1c(/C=N/N=C2\CCC3C4CCc5cc(O)ccc5C4CCC23C)cnn1C` (stereo not given), 0.0219. `O=C(c1cc(-c2cccs2)nc2ccccc12)N1CCN(S(=O)(=O)c2cccc(F)c2)CC1` had a z-score of 0.0151. In the case of `COC(=O)NNC(=O)COc1ccc(Br)c(C)c1`, the z-score was -0.0617. To `O=C(COc1cc(Cl)ccc1Cl)Nc1nnc(CC(=O)N2CCOCC2)s1` belongs -0.147; to `CC1(Br)C2CCCC1C2S(=O)(=O)c1ccccc1` (stereo not given), -0.376; to `CCOC(=O)N1CCN(S(=O)(=O)c2ccc(F)c(C(=O)Nc3cc(C)cc(C)c3)c2)CC1`, -0.295. `c1ccc(-n2cccc2CNC2CCCCC2)cc1` gave a z-score of 2.02.

Turning to `O=S(=O)(c1ccc(Br)s1)N1CCN(c2ncccn2)CC1`, the z-score was -0.48.

In turn, `CN1CCN(C(=O)c2cn(-c3ccccc3)nc2-c2cccnc2)CC1` registered a z-score of -0.051. To `COc1ccc(-n2c(=S)[nH]c3ccccc32)cc1` belongs 1.9; to `ON=C1CCN(c2ncc(C(F)(F)F)cc2Cl)CC1`, -0.0465. As for `CCOc1ccc(N(CC(=O)Nc2ccc(C)cc2)S(=O)(=O)c2c(C)noc2C)cc1`, the z-score is -0.0886.
